# Test results taken from PubChem BioAssay AID743255 (National Center for Advancing Translational Sciences (NCATS), 2014).
# In all, about 390,000 compounds went through this assay and about 910 (0.23%) were called active. Another 5% or so got no clear call; they are omitted. The call rests on the fitted dose curve; in most records, active means well fitted inhibition curve with a large enough effect; inconclusive means small, poorly fitted or top-dose-only effect; inactive means no such curve, though single readings can be large or run the other way. Only a part is listed here, and it is no random draw.
# Target: Ubiquitin carboxyl-terminal hydrolase 1 (Homo sapiens) (UniProt O94782)
# Sequence of UniProt O94782 (O94782 whole entry, looked up): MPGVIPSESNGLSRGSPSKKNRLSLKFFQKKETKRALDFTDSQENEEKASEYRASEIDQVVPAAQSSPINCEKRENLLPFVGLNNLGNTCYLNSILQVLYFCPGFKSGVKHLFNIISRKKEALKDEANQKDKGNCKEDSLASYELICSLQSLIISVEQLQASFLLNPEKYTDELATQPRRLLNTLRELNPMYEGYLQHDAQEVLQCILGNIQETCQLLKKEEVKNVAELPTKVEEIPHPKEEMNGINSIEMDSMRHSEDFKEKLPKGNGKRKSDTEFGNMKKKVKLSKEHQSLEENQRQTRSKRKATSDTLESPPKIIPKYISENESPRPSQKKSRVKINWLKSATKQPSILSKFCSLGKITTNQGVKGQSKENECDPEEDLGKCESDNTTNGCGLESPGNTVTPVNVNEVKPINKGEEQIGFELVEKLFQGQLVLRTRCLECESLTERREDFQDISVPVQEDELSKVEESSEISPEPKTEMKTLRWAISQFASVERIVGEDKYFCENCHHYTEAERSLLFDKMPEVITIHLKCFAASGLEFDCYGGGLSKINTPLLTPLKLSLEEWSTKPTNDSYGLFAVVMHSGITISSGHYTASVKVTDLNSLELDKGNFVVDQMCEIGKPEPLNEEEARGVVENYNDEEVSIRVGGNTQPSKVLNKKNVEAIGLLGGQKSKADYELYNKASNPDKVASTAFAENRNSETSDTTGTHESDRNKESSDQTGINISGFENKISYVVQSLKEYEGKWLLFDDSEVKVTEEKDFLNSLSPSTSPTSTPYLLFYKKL
# Experiment: Inhibitors of USP1/UAF1: Primary Screen; further: nearly all actives have a fitted effect of over 60% in size
# Settings: recombinant USP1/UAF1, Ub-Rhodamine cleavage fluorescence; activity change, negative = inhibition: at 57.1 µM (top of the series)
# Excerpt: Deubiquitinating enzymes (DUBs) are a class of enzymes that can cleave isopeptide bond formed between the C-terminal carboxylate of ubiquitin and a lysine side-chain amino group on the target protein. Among them, ubiquitin specific proteases (USPs) constitute the largest DUB family. Human USPs are emerging as promising targets for pharmacological intervention because of their connection to a number of human diseases, including prostate, colon and breast cancer (1, 2), pediatric acute lymphoblastic leukemia (3), and familial cylindromatosis (4). The advantage of inhibiting USPs lies in the potential specificity of therapeutic intervention that can lead to better efficacy and reduce nonspecific side effects. In a collaboration between the University of Delaware and the NIH Chemical Genomics Center, a high-throughput screen assay was developed to screen for USP1/UAF1 inhibitors. This miniaturized assay has a fluorescent read-out and is used to screen the NIH Molecular Libraries Small Molecule Repository (MLSMR) in order to identify a small molecule that inhibits USP1. NIH Chemical Genomics Center [NCGC] NIH Molecular Libraries Probe Centers Network [MLPCN] MLPCN Grant: DA030552 Assay Submitter (PI): Zhihao Zhuang, University of Delaware 1. Priolo, C., et al. (2006) The isopeptidase USP2a protects human prostate cancer from apoptosis. Cancer Res 66, 8625-8632 2. Popov, N., et al. (2007) The ubiquitin-specific protease USP28 is required for MYC stability. Nat Cell Biol 9, 765-774 3. De Pitta, C., et al. (2005) A leukemia-enriched cDNA microarray platform identifies new transcripts with relevance to the biology of pediatric acute lymphoblastic leukemia. Haematologica 90, 890-898 4. Kovalenko, A., et al. (2003) The tumour suppressor CYLD negatively regulates NF-kappaB signalling by deubiquitination. Nature 424, 801-805
# 3 microliters of reagents (buffer in columns 3 and 4 as negative control and 1nM USP1/UAF1 complex in columns 1, 2, and 5-48) are dispensed into Greiner black solid bottom 1536-well assay plates. Compounds are then transferred via Kalypsys pin tool equipped with 1536-pin array (10nl slotted pins, V&P Scientific, San Diego, CA). Following an incubation step of 15 min at room temperature, 1ul of Ub-Rho substrate (150nM final concentration) is added to initiate the reaction. The plates are immediately centrifuged at 1000 rpm for 15 seconds, and subsequently transferred to a ViewLux high-throughput CCD imager (PerkinElmer) wherein kinetic measurements of fluorescence are acquired using 480 nm excitation/540 nm emission filter set (6 reads every 60 seconds, see Table 1). All reagents are diluted in an assay buffer consisting of 50mM HEPES (pH 7.8), 0.5mM EDTA, 0.1 mg/ml BSA, 1mM TCEP, and 0.01% Tween-20.
# On the % scale 0 is the no-effect control and ±100 the full control effect; potency means the concentration at half of the fitted maximal effect.
SMILES,"activity change, negative = inhibition",Potency
CCOc1ccc(OCC)c(NC(=O)C2CCN(c3cnccn3)CC2)c1,inactive: -25.6%,
COc1cc2c(=O)n(CCC(=O)NCC3CCCO3)c(=O)n(CC(=O)Nc3ccc(C)cc3)c2cc1OC (configuration not stated),inactive: -1.42%,
COC(=O)[C@H]1[C@H]2C[C@H]3c4[nH]c5ccccc5c4CCN3C[C@H]2CC[C@@H]1O,inactive: -30.4%,
C[C@@H]1CN([C@H](C)CO)C(=O)CCCn2cc(nn2)CO[C@H]1CN(C)S(=O)(=O)c1ccc(-n2cccn2)cc1,inactive: -3.9%,
CC(=O)N1CCn2c3c(c(=O)c4cc(C)ccc42)CCC31 (configuration not stated),,active: 31.6 µM
N#CC1=C2SCN(Cc3ccccc3)CN2C(=O)CC1c1cccs1 (configuration not stated),,active: 15.8 µM
CCOc1ccccc1/C=C/c1onc(C)c1S(=O)(=O)N1CCC(C(=O)N(CC)CC)CC1,inactive: -25.2%,
CC[C@@H]1C/C=C\Cc2ccccc2[C@H](C(=O)C[C@H](O)CC(C)=O)OC1=O,inactive: -20.6%,
O=C(CN1C(=O)COc2ccc(S(=O)(=O)N3CCCCCC3)cc21)NCc1ccc(F)cc1,inactive: -18.3%,
C=C1[C@H](C)CN(S(=O)(=O)C(C)(C)C)[C@H]1CCO,inactive: -3.85%,
Cn1c(=O)oc2cc(S(=O)(=O)Nc3ccc(C(=O)O)cc3)ccc21,inactive: -12.5%,
C[C@@H](NC(=O)c1nc[nH]c1C(=O)NCCCCCNC(=O)OC(C)(C)C)c1ccccc1,inactive: -25.7%,
Cn1nc(-c2ccc(C(=O)Nc3ccc(F)cc3)cc2)c2ccccc2c1=O,inactive: -25.7%,
Oc1ccc(C[C@H]2CNC(=S)N2CCc2cc(C(F)(F)F)cc(C(F)(F)F)c2)cc1,inactive: -12.1%,
Cc1ccc(NC(=S)N2CCC(c3nc4ccccc4s3)CC2)cc1C,inactive: 34.1%,
CCN1C(=O)[C@H]2[C@@H](c3ccc(-c4ccc(C(C)=O)cc4)c(OC)c3)N3CCCC[C@@]3(C(=O)OC)[C@H]2C1=O,inactive: -25.1%,
CCN(CC)c1ccc(/C=C/c2cc(-c3ccccc3)c3ccccc3n2)cc1,inactive: 264%,
C=CCC[C@H](Cc1ccc(F)cc1)C(=O)OC[C@H](C)NC(=O)[C@H](CC=C)CC(=O)N(CCO)Cc1ccccc1,inactive: -7.46%,
COc1ccc(S(=O)(=O)N(C)C[C@@H]2OCc3cnnn3CCCC(=O)N([C@H](C)CO)C[C@@H]2C)cc1,inactive: -23.2%,
CC(C)(C)OC(=O)C[C@H]1C/C=C\C[C@H](CC(=O)N(CCO)Cc2ccccc2)C(=O)N[C@H](C(C)(C)C)COC1=O,inactive: -14.1%,
COc1ccc2cc(CNc3ccccc3)c(=O)n(CC(=O)Nc3ccc(C)cc3C)c2c1,inactive: 18.7%,

SMILES,"activity change, negative = inhibition",Potency
CCOC(=O)C1=C(c2ccccc2)N=c2s/c(=C\c3cc(OC)c(OC)c(OC)c3)c(=O)n2C1c1cccs1 (configuration not stated),,active: 22.4 µM
C[C@H](CO)N1C[C@H](C)[C@@H](CN(C)C(=O)Nc2ccc(C(F)(F)F)cc2)Oc2c(NC(=O)NC3CCCCC3)cccc2C1=O,inactive: -4.89%,
O=C(CN(c1ccc(F)cc1)S(=O)(=O)c1ccc2c(c1)OCCO2)NCc1ccccc1,inactive: 41.7%,
O=C(CSc1nc2c([nH]c3ccccc32)c(=O)n1-c1cccc(Cl)c1)N1CCOCC1,inactive: -22.7%,
COC1=C(Br)C(=O)c2nc(C)ccc2C1=O,,active: 25.1 µM
C[C@H]1CN([C@@H](C)CO)C(=O)CCCn2nncc2CO[C@@H]1CN(C)C(=O)c1ccc(N2CCN(C)CC2)cc1,inactive: -16.4%,
COc1cc(NC(=O)c2cncc(-c3ccc(C#N)cc3)c2)cc(C(=O)Nc2cccc(C(F)(F)F)c2)c1,inactive: -24.3%,
CCc1c(C)nc(SCC(=O)c2cccs2)c(C#N)c1C,inactive: 189%,
COc1ccc(-c2cc(C(=O)Nc3ccc4c(c3)OCO4)no2)cc1OC,inactive: -14.4%,
COC(C[C@@H]1O[C@@H]1[C@H](O)[C@H](C)OCc1ccccc1)OC,inactive: -16.2%,
C=CCCC(=O)Nc1nc(C)c(-c2csc(Nc3ccc(Cl)cc3)n2)s1,inactive: 19.7%,
C[C@@H]1CN([C@H](C)CO)C(=O)CCCn2nncc2CO[C@@H]1CN(C)C(=O)Nc1ccc2c(c1)OCO2,inactive: -21%,
COC(=O)N(C)C[C@@H]1OCc2cnnn2CCCC(=O)N([C@H](C)CO)C[C@@H]1C,inactive: -24.2%,
C=CC[C@@H](CC(=O)N[C@H](CO)Cc1ccccc1)C(=O)N[C@@H](COC(=O)[C@@H](CC=C)Cc1ccc(F)cc1)Cc1c[nH]c2ccccc12,inactive: -10%,
COc1ccc(Cn2c(O)c(/C=N/NC(=O)c3cccnc3)c3ccccc3c2=O)cc1,,active: 31.6 µM
C=CC[C@H](CC(=O)N[C@H](CO)Cc1ccccc1)C(=O)N[C@@H](COC(=O)[C@@H](CC=C)Cc1ccc(F)cc1)Cc1c[nH]c2ccccc12,inactive: 7.67%,
COc1ccc(CNC(=O)C2CCC(CNS(=O)(=O)c3cccs3)CC2)cc1 (configuration not stated),inactive: -14.2%,
Cc1ccc(C)c(C(=O)COC(=O)CCCC(=O)Nc2cc(C(F)(F)F)ccc2Cl)c1,inactive: -23.4%,
C[C@@H]1CN([C@@H](C)CO)S(=O)(=O)c2ccc(Br)cc2O[C@H]1CN(C)C(=O)c1cccc(F)c1,inactive: -13.2%,
CCOc1cccc2cc(-c3nc4sc(C(=O)Nc5ccc(C)cc5)c(C)c4c(=O)[nH]3)c(=O)oc12,inactive: 53.6%,
C[C@H](CO)N1C[C@H](C)[C@H](CN(C)C(=O)c2ccccc2)OCc2cnnn2CCCC1=O,inactive: -31%,
